Measured values published in the supplement of paper PMC11181314.
Some of the results follow. Single values of this set are uncertain.

Test system: U2OS
Assay: Cell Painting induction (percent of morphological features significantly changed vs DMSO); higher = stronger morphological change
Settings: 10 µM; 20 h; run: confirmation repeat
Method: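 Cell Painting assay in U2OS cells: compounds at 10 µM for 20 h, six dyes, 579 robust CellProfiler features as Z-scores vs DMSO median (MAD). Induction is the % of significantly changed features (active if ≥5%); relative cell count is in % of DMSO. The primary run holds DCM compounds preselected for induction ≥10%; the confirmation repeat defines active compounds (370 of 549). Replicate agreement is low, attributed to precipitation.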
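Note: stains mark DNA, RNA and nucleoli, ER, actin, Golgi, plasma membrane and mitochondria, read by high-content imaging, with DMSO controls at matching solvent concentration.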

| SMILES | Cell Painting induction |
| --- | --- |
| CCOC(=O)CNC(=O)CNC(=O)C(Cc1ccc(N(CCCl)CCCl)cc1)NC(C)=O (configuration not stated) | active: 11.4% |
| COc1ccc(-n2c(/C=C/c3cccc(F)c3)nc3ccccc3c2=O)c(OC)c1 | inactive: 0.9% |
| O=C1NC(=O)N(Cc2ccc(F)cc2)C(=O)/C1=C/Nc1ccc(Cl)cc1 | inactive: 0% |
| CCCCCCNc1nc(OC)nc(N2CC3CC(C2)c2cccc(=O)n2C3)n1 (configuration not stated) | inactive: 1% |
| CCOc1cc2c(cc1OCC)-n1cccc1C(c1cccc(F)c1F)NC2 (configuration not stated) | active: 25% |
| CCOC(=O)C(NC(=O)C(Cc1ccc(N(CCCl)CCCl)cc1)NC(C)=O)C(C)C (configuration not stated) | active: 21.9% |

Same assay, conditions: 10 µM; 20 h; run: primary screen (compounds selected for induction >=10%)

| SMILES | Cell Painting induction |
| --- | --- |
| CCOC(=O)CNC(=O)CNC(=O)C(Cc1ccc(N(CCCl)CCCl)cc1)NC(C)=O (configuration not stated) | 22.8% |
| COc1ccc(-n2c(/C=C/c3cccc(F)c3)nc3ccccc3c2=O)c(OC)c1 | 26.1% |
| O=C1NC(=O)N(Cc2ccc(F)cc2)C(=O)/C1=C/Nc1ccc(Cl)cc1 | 11.6% |
| CCCCCCNc1nc(OC)nc(N2CC3CC(C2)c2cccc(=O)n2C3)n1 (configuration not stated) | 11.6% |
| CCOc1cc2c(cc1OCC)-n1cccc1C(c1cccc(F)c1F)NC2 (configuration not stated) | 21.4% |
| CCOC(=O)C(NC(=O)C(Cc1ccc(N(CCCl)CCCl)cc1)NC(C)=O)C(C)C (configuration not stated) | 28.8% |
